# Article PMC12136788
# The list shows a part of the results.
# T1: UNK ZnF1-6 (called full-length) (human, UniProt Q9C0B0 30-357)
# T1 sequence: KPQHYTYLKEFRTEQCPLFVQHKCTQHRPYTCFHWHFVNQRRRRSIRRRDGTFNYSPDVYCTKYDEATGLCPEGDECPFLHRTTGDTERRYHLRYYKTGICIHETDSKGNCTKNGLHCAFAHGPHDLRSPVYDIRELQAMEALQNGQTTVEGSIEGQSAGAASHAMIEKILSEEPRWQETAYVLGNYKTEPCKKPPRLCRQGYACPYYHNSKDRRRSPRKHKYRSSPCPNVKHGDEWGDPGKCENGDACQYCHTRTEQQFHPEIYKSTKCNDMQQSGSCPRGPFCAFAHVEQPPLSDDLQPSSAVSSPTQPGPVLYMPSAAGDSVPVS
# B1: chr13:24434660:24434761:-|CDS|ENSG00000102699|unk|total|mutant (ssRNA)
# RNA: GGGAGUUCUACAGUCCGACGAUCCCCUCUGCUUCCUCUCCUUUUCAUUUUCAACCUUCCGCAGCCUCUUUGACUGCCAACCUCCGGCUGCCAAUGGCCUCUGCUUUACCUGAGGCUCUUUGCAGUCAGUCCCGGACUACCCCACAACAGAGGAUUGAGCAUCA
# B2: ENSG00000112335:stop:overlap|stop_codon|ENSG00000112335|stop_codon|NA|stop_codon (ssRNA)
# RNA: GGGAGUUCUACAGUCCGACGAUCAGGCAAGGAGUCAUGGAAGGACGUGGUGUGCUCAGAAUGAUGAAAAGUUAUUUUGUGACUAGAAAGUCGUAGUUCCCCCGCUCCCUGGGAAAGCGUUUUUGCGUCAGCUUCCUUUUAGAGCAACAGAGGAUUGAGCAUCA
# B3: chr1:158329851:158330130:-|CDS|ENSG00000158485|control|control|control (ssRNA)
# RNA: GGGAGUUCUACAGUCCGACGAUCCAUAGCAGGCUGUGAGCUACAUUCUGGAGGUGCCAUAGUAAGCUUCCUGAGGGGAGCUCUAGGAGGAUUGGAUUUCCUGAGUGUCAAGAAUGCUUCAUGUGUGCCUUCCCCAGAAGGUGGCAACAGAGGAUUGAGCAUCA
# B4: chr15:63774837:63774950:-|CDS|ENSG00000103657|unk|total|mutant (ssRNA)
# RNA: GGGAGUUCUACAGUCCGACGAUCGUAACAACAUUUCUUAAAGGAGUCACUAUUCCUAAUUCUGGGGCAGACACUUCCGGUCGCCGAUCCGCUUCUGAGUUGCUGCUUGGUUUGGCAGCUCAACGAGGCUCAUUGCGAUAUCUUCAACAGAGGAUUGAGCAUCA
# B5: chr2:209733988:209734100:+|3pUTR|ENSG00000078018|unk|FALSE|unique (ssRNA)
# RNA: GGGAGUUCUACAGUCCGACGAUCUCUGAUAAUUCUAGAGCCUGUUACCAUAGAAAGGCAUUUCUUCAAUGGCUGGUUGUAGUUAGUUCAUGUUUUUCAAUCAAAUUUGCAAAUGUAUUUGUUGCUGUAUAGUGAUUGUUUUGCCAACAGAGGAUUGAGCAUCA
# B6: chr6:108211900:108211976:-|3pUTR|ENSG00000112335|msi1_unk|FALSE|overlapping (ssRNA)
# RNA: GGGAGUUCUACAGUCCGACGAUCGUUGACAAGAAGUUAAUUUGCUUUAGUAAAAAUCCCUCAUUCCAGCCUUUCUAUAUAAAUAGCUCUUUCUUGCUGUUUUAAUGUGGUGCACACUAUAGCCUCACAAACCUGUUAUUCCAGCAACAGAGGAUUGAGCAUCA
# B7: chr7:20412070:20412171:+|3pUTR|ENSG00000105855|msi1|FALSE|unique (ssRNA)
# RNA: GGGAGUUCUACAGUCCGACGAUCCUUUUUUUUUAUAAUAAACUUCCAAGAUUUGCUGUCUUCCAGCACUUGAGUUAAAGUACUAGAUACUGCAUUUUGAUGAAGACUAACCCCAUCUCAUAUUCUACCCUAAAGAGAACUGAACAACAGAGGAUUGAGCAUCA
# B8: chr1:66374421:66374522:+|3pUTR|ENSG00000184588|msi1|total|mutant (ssRNA)
# RNA: GGGAGUUCUACAGUCCGACGAUCACUGCAUUGUUUCAGGUGGACAUUUUAUCAUUUUCAAAUGUUUCUCACAAUGUAUGUUACCGUAUUAUUAUUAUAUAUUGUGUUCAAAUGCAUUCUAAAGAGACUUUUAUAUGAGGUGAACAACAGAGGAUUGAGCAUCA
# B9: ENSG00000110906:stop:overlap|stop_codon|ENSG00000110906|stop_codon|NA|stop_codon (ssRNA)
# RNA: GGGAGUUCUACAGUCCGACGAUCGCUGCCUCCCUUUACUCCCAGUCCCAUUUACAAAAAUAACGUUUGUGUUUUACCAGUUAUAGUUGUAGUACCCAUUCAUUAUAGAAAAUCUGGAAAAGCUAGACAAUUCUUUUUCAGUUUCAACAGAGGAUUGAGCAUCA
# B10: chr4:65323451:65323552:-|3pUTR|ENSG00000145242|msi1|total|mutant (ssRNA)
# RNA: GGGAGUUCUACAGUCCGACGAUCAUCAAGAAAAAGUACAAUACAGGGUGUAUAUUUAUUUUUUGUGUUAUAAAGUUUACUUUCCGUUGCUCUUCCCGAGAUUAUCCGGUAAUAAAUGUGUAUAUACUGUAUAAUUUGCAAUAUCAACAGAGGAUUGAGCAUCA
# B11: chr10:62096657:62096758:+|3pUTR|ENSG00000150347|msi1|total|mutant (ssRNA)
# RNA: GGGAGUUCUACAGUCCGACGAUCACCUCUAUGCUCUGUAAGGUGAUUAUUUGUAUACCGCAACAUGGCCCAGUGAUAUUAUACCGUUUCCCAAUGGAGAGGUUAUUGAGUAACCUUUGCAUCCGUUUAAACACUACCAGAAGACAACAGAGGAUUGAGCAUCA
# B12: chr1:204554719:204554820:+|3pUTR|ENSG00000198625|unk|FALSE|unique (ssRNA)
# RNA: GGGAGUUCUACAGUCCGACGAUCAAGUACUUUCUUUUGACAGAAAUUUUCAUUCUGCUUGCCAUUGCUAUAUUCUCCCUUUAUAGGAGCCAUUGGAUUUCUUUCCUUUUGUGGGAAAUGUCCCAUUAGCAUUUUCAGAUCUUUCAACAGAGGAUUGAGCAUCA
# B13: chr3:87253716:87253817:+|CDS|ENSG00000083937|unk|total|mutant (ssRNA)
# RNA: GGGAGUUCUACAGUCCGACGAUCUGCCUCUACUUCAAAGGCUACAAUCUCAGAUGAAGAGAUUGAACGGCAACUCAAGGCUUCCGGAGCCGAUCCGUCAAAAGAAGUCAUACUAUUUUGCUUACUUAUAAUUAUGCCGUAUAACAACAGAGGAUUGAGCAUCA
# B14: chr15:75505753:75505856:-|CDS|ENSG00000169410|unk|total|mutant (ssRNA)
# RNA: GGGAGUUCUACAGUCCGACGAUCGGUGAACGGCCACCCAGAUCCCUUCGAUGAGAUCAUCCUGUUCUCCCUCCCUCCUGCCUCCGACUGGGACUCAGUACAUGUUCCAGGUCCCCAUGCUAUGACCAUCCAAGAGUUGGUGGACAACAGAGGAUUGAGCAUCA
# B15: chr9:113264340:113264441:+|3pUTR|ENSG00000136868|msi1|total|mutant (ssRNA)
# RNA: GGGAGUUCUACAGUCCGACGAUCAAAGUCUGCAUUUGAUAUAAUGCCUUAAUUACUGGGUCUACAAUUAAUGUUGACUGUUUCCGAUUGUAAGCUCCUGGAGAGCAGUAUUGCUGCCGCCGGAAUGUUUUAACAGUGUCAUAUCAACAGAGGAUUGAGCAUCA
# B16: chr1:179108573:179108674:-|CDS|ENSG00000143322|unk|total|mutant (ssRNA)
# RNA: GGGAGUUCUACAGUCCGACGAUCAGCCAAGUUAUUGCCCAGAGGAGCCACAGCUCUUCCUCUCAGAACACCCUCUGGGGAUCCCGCCAUUACAGAGAAGGACCCUCCAGGGGUGGGAGUGGCUGGAGUGGCAGCUGCCCCCAACAACAGAGGAUUGAGCAUCA
# B17: ENSG00000107863:be:win_2051|CDS|ENSG00000107863|bound_else_gene|NA|bound_elsewhere_windowed (ssRNA)
# RNA: GGGAGUUCUACAGUCCGACGAUCCUUUAUCUGGAGCCUCUGCCAAGCCUGCCCCUCAGUCGAGUGAAAACGCUGGUACUUCAGAUUUAGAACUACCUGUCAGUCAAAGGAAUCAAGAUUUAAGUUUACAAGAGGCUGAAACUGCAACAGAGGAUUGAGCAUCA
# B18: chr19:48485270:48485772:-|three_prime_utr|ENSG00000142235|control|control|control (ssRNA)
# RNA: GGGAGUUCUACAGUCCGACGAUCCCCCUGACCCCCCUGACCCCCUCGGAGCCAAAUGAGGCAGGAAUCCCCCCGCCCCUCCAUAGAGAGCCGCCUUUCUCGGAACUGAACUGAACUCUUUUGGGCCUGGAGCCCCUCGACACACAACAGAGGAUUGAGCAUCA
# B19: chr2:216675642:216675774:-|3pUTR|ENSG00000115461|msi1|total|mutant (ssRNA)
# RNA: GGGAGUUCUACAGUCCGACGAUCUUUUUCUUUGUUUUUUUCUUUCUUCCUUUCUUUCAAAGGUUUGCAUUAACUUUUCAAAGCCGUUCCUACCGGGGCAUUGAGGAGCUUCCUCAUUCUGGGAAAACUGAGAAAACCCAUAUUCAACAGAGGAUUGAGCAUCA
# B20: chr11:113738268:113738383:-|CDS|ENSG00000086827|unk|total|mutant (ssRNA)
# RNA: GGGAGUUCUACAGUCCGACGAUCUGCUUUUUGGCCCAAAUGCGGGCACAGAAAGGUGAACUUCUGGAAAGAUUAUCAAGUGCCCGGAACUUUUCAAAUAUGGACGAUGAAGAGAAUUAUUCUGCAGCAAGUAAAGCAGUCCGGCAACAGAGGAUUGAGCAUCA
# B21: ENSG00000124766:be:win_3751|3pUTR|ENSG00000124766|bound_else_gene|NA|bound_elsewhere_windowed (ssRNA)
# RNA: GGGAGUUCUACAGUCCGACGAUCUUGUACAUUUAAGUCUGUAUUAUAAUAAGCAAAAAGAUUGUGUGUAUGUAUGUUUAAUAUAACAUGACAGGCACUAGGACGUCUGCCUUUUUAAGGCAGUUCCGUUAAGGGUUUUUGUUUCAACAGAGGAUUGAGCAUCA
# B22: chr12:47968718:47968836:+|3pUTR|ENSG00000134291|unk|FALSE|unique (ssRNA)
# RNA: GGGAGUUCUACAGUCCGACGAUCCUGGGAGCUUUUUGAAAAGAAAGAAAAAAGUGUGUUGGCUUUUUUUUUUUUUAGAAAGUUAGAAUUGUUUUUACCAAGAGUCUAUGUGGGGCUUGAUUCACCCUUCAUCCAUUGGCUGGACAACAGAGGAUUGAGCAUCA
# Biological target: T1, UNK ZnF1-6 (called full-length)
# Assay: nsRBNS (natural sequence RNA bind-n-seq); RBNS binding buffer (assumed for nsRBNS): 25 mM Tris pH 7.5, 150 mM KCl, 3 mM MgCl2, 0.01% Triton X-100, 500 ug/ml BSA, 20 U/ml SUPERase-In, 4 C; UNK is unkempt and MSI1 is Musashi-1; names of the RNAs are library labels; protein concentration not given here; high values mean tight binding
row,Binder,binding signal [enrichment R]
1,B1,0.906
2,B2,0.362
3,B3,0.764
4,B4,0.574
5,B5,1.4
6,B6,0.942
7,B7,0.837
8,B8,0.73
9,B9,0.563
10,B10,0.757
11,B11,0.344
12,B12,1.01
13,B13,0.496
14,B14,0.838
15,B15,0.378
16,B16,0.611
17,B17,0.665
18,B18,1.6
19,B19,0.435
20,B20,0.391
21,B21,0.359
22,B22,0.985
